Data: patent US5440015A, “Selectin peptide medicaments for treating disease” (Glycomed Incorporated, priority 1993, dated 1995)
pIC50: −log10 of the molar value. Like-named read-outs stand apart in the source and are kept apart here. At least one peptide structure holds a part that was inferred or is arguable (an end, a ring closure or a residue). Some compounds share one wording; it may come from a single statement. No end group written: not given here.

How the values were obtained:
[1] = tested on: neutrophil migration to the peritoneal cavity; experiment: Murine thioglycollate induced peritonitis model; format: in vivo, mice; settings: for Percent Inhibition, Expt 1 / Percent Inhibition, Expt 2: tail vein, peritoneal cells 3 hours after thioglycollate i.p., vs PBS control; for inhibitory activity (fewer cells in the peritoneal cavity compared to the PBS control): result in words
[2] = tested on: HL-60 cells binding to human umbilical vein endothelial cells (HUVEC) stimulated to express E-selectin; experiment: Inhibition of HUVEC/HL-60 cell binding; format: cell-based; settings: IL-1 beta stimulated HUVEC, myeloperoxidase readout

Substance	Percent Inhibition, Expt 1 ([1]; 12 mg/kg) [%]	inhibitory activity (fewer cells in the peritoneal cavity compared to the PBS control) [1]	pIC50 ([2]; Expt 2, read-out: IC50, Expt 2)	pIC50 ([2]; Expt 3, read-out: IC50, Expt 3)	Percent Inhibition, Expt 2 ([1]; 16 mg/kg) [%]	pIC50 ([2]; Expt 1, read-out: IC50, Expt 1)	Percent Inhibition, Expt 1 ([1]; 15 mg/kg) [%]	Percent Inhibition, Expt 2 ([1]; 15 mg/kg) [%]	Percent Inhibition, Expt 2 ([1]; 37 mg/kg) [%]
Ac-YYWIGIRK [(Ac)SEQ ID NO:2]	31	substantial inhibitory activity	4.70	4.52	–	–	–	–	–
YWIGIR [SEQ ID NO:5, YWIGIR]	–	substantial inhibitory activity	4.30	5.00	71	4.70	–	–	–
YWIGIRK [SEQ ID NO:4, YWIGIRK]	–	substantial inhibitory activity	4.15	3.52	–	–	–	–	–
YYWIGIR [SEQ ID NO:3, YYWIGIR]	–	substantial inhibitory activity	4.70	5.15	–	5.52	71	50	66
